According to the supplement of paper PMC8728848:
The list shows a part of the results.

What was measured:
Test in all cases: glycan array binding signal (z-score within array); higher = stronger binding
Conditions in all cases: glycan notation: IUPAC condensed, linker removed
Gal(a1-3)Gal = target: Gal(a1-3)Gal
Method in brief: (§1)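 Columns mapping to the same glycan were averaged after glycan names were converted to IUPAC-condensed notation. The data come from 3228 arrays in the Consortium for Functional Glycomics database, limited to those with an available protein sequence. Binding is reported as a within-array Z-score averaged across arrays of one protein sequence and across linkers.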

Gal(a1-3)Gal(b1-3)GlcNAc = target: Gal(a1-3)Gal(b1-3)GlcNAc
Method in brief: as §1

[1] = target: Gal(a1-3)Gal(b1-3)GlcNAc(b1-2)Man(a1-3)[Gal(a1-3)Gal(b1-3)GlcNAc(b1-2)Man(a1-6)]Man(b1-4)GlcNAc(b1-4)GlcNAc
Method in brief: as §1

[2] = target: Gal(a1-3)Gal(b1-3)GlcNAc(b1-3)GalNAc
Method in brief: as §1

[3] = target: Gal(a1-3)Gal(b1-3)[Fuc(a1-4)]GlcNAc(b1-2)Man(a1-3)[Gal(a1-3)Gal(b1-3)[Fuc(a1-4)]GlcNAc(b1-2)Man(a1-6)]Man(b1-4)GlcNAc(b1-4)GlcNAc
Method in brief: as §1

Gal(a1-3)Gal(b1-4)Glc = target: Gal(a1-3)Gal(b1-4)Glc
Method in brief: as §1

Gal(a1-3)Gal(b1-4)GlcNAc = target: Gal(a1-3)Gal(b1-4)GlcNAc
Method in brief: as §1

[4] = target: Gal(a1-3)Gal(b1-4)GlcNAc(b1-3)GalNAc
Method in brief: as §1

[5] = target: Gal(a1-3)Gal(b1-4)[Fuc(a1-3)]GlcNAc
Method in brief: as §1

[6] = target: Gal(a1-3)Gal(b1-4)[Fuc(a1-3)]GlcNAc(b1-2)Man(a1-3)[Gal(a1-3)Gal(b1-4)[Fuc(a1-3)]GlcNAc(b1-2)Man(a1-6)]Man(b1-4)GlcNAc(b1-4)GlcNAc
Method in brief: as §1

Gal(a1-3)GalNAc = target: Gal(a1-3)GalNAc
Method in brief: as §1

[7] = target: Gal(a1-3)[Gal(a1-4)]Gal(b1-4)GlcNAc
Method in brief: as §1

[8] = target: Gal(a1-4)Gal(b1-3)GlcNAc(b1-2)Man(a1-3)[Gal(a1-4)Gal(b1-3)GlcNAc(b1-2)Man(a1-6)]Man(b1-4)GlcNAc(b1-4)GlcNAc
Method in brief: as §1

Gal(a1-4)Gal(b1-4)Glc = target: Gal(a1-4)Gal(b1-4)Glc
Method in brief: as §1

Gal(a1-4)Gal(b1-4)GlcNAc = target: Gal(a1-4)Gal(b1-4)GlcNAc
Method in brief: as §1

[9] = target: Gal(a1-4)Gal(b1-4)GlcNAc(b1-2)Man(a1-3)[Gal(a1-4)Gal(b1-4)GlcNAc(b1-2)Man(a1-6)]Man(b1-4)GlcNAc(b1-4)GlcNAc
Method in brief: as §1

[10] = target: Gal(a1-4)Gal(b1-4)GlcNAc(b1-3)Gal(b1-4)Glc
Method in brief: as §1

Gal(a1-4)GlcNAc = target: Gal(a1-4)GlcNAc
Method in brief: as §1

Gal(a1-6)Glc = target: Gal(a1-6)Glc
Method in brief: as §1

Gal(b1-2)Gal = target: Gal(b1-2)Gal
Method in brief: as §1

Gal(b1-3)Gal = target: Gal(b1-3)Gal
Method in brief: as §1

Gal(b1-3)Gal(b1-4)GlcNAc = target: Gal(b1-3)Gal(b1-4)GlcNAc
Method in brief: as §1

[11] = target: Gal(b1-3)Gal(b1-4)GlcNAc(b1-2)Man(a1-3)[Gal(b1-3)Gal(b1-4)GlcNAc(b1-2)Man(a1-6)]Man(b1-4)GlcNAc(b1-4)GlcNAc
Method in brief: as §1

Gal(b1-3)GalNAc = target: Gal(b1-3)GalNAc
Method in brief: as §1

[12] = target: Gal(b1-3)GalNAc(a1-3)[Fuc(a1-2)]Gal(b1-4)Glc
Method in brief: as §1

[13] = target: Gal(b1-3)GalNAc(a1-3)[Fuc(a1-2)]Gal(b1-4)GlcNAc
Method in brief: as §1

[14] = target: Gal(b1-3)GalNAc(b1-3)Gal(a1-4)Gal(b1-4)Glc
Method in brief: as §1

[15] = target: Gal(b1-3)GalNAc(b1-4)Gal(b1-4)Glc
Method in brief: as §1

[16] = target: Gal(b1-3)GalNAc(b1-4)[Neu5Ac(a2-3)]Gal(b1-4)Glc
Method in brief: as §1

Gal(b1-3)GlcNAc = target: Gal(b1-3)GlcNAc
Method in brief: as §1

[17] = target: Gal(b1-3)GlcNAc(a1-6)Gal(b1-4)GlcNAc
Method in brief: as §1

[18] = target: Gal(b1-3)GlcNAc(b1-2)Man(a1-3)[Gal(b1-3)GlcNAc(b1-2)Man(a1-6)]Man(b1-4)GlcNAc(b1-4)GlcNAc
Method in brief: as §1

[19] = target: Gal(b1-3)GlcNAc(b1-2)Man(a1-3)[Gal(b1-3)GlcNAc(b1-2)Man(a1-6)]Man(b1-4)GlcNAc(b1-4)[Fuc(a1-6)]GlcNAc
Method in brief: as §1

[20] = target: Gal(b1-3)GlcNAc(b1-2)[Gal(b1-3)GlcNAc(b1-6)]Man(a1-6)[Gal(b1-3)GlcNAc(b1-2)Man(a1-3)]Man(b1-4)GlcNAc(b1-4)GlcNAc
Method in brief: as §1

[21] = target: Gal(b1-3)GlcNAc(b1-3)Gal(b1-3)GlcNAc
Method in brief: as §1

[22] = target: Gal(b1-3)GlcNAc(b1-3)Gal(b1-4)Glc
Method in brief: as §1

[23] = target: Gal(b1-3)GlcNAc(b1-3)Gal(b1-4)GlcNAc
Method in brief: as §1

[24] = target: Gal(b1-3)GlcNAc(b1-3)Gal(b1-4)GlcNAc(b1-6)[Gal(b1-3)GlcNAc(b1-3)]Gal(b1-4)Glc
Method in brief: as §1

[25] = target: Gal(b1-3)GlcNAc(b1-3)Gal(b1-4)[Fuc(a1-3)]GlcNAc(b1-6)[Gal(b1-3)GlcNAc(b1-3)]Gal(b1-4)Glc
Method in brief: as §1

[26] = target: Gal(b1-3)GlcNAc(b1-3)GalNAc
Method in brief: as §1

[27] = target: Gal(b1-3)GlcNAc(b1-6)Gal(b1-4)GlcNAc
Method in brief: as §1

[28] = target: Gal(b1-3)[Fuc(a1-4)]GlcNAc
Method in brief: as §1

[29] = target: Gal(b1-3)[Fuc(a1-4)]GlcNAc(b1-2)Man(a1-3)[Gal(b1-3)[Fuc(a1-4)]GlcNAc(b1-2)Man(a1-6)]Man(b1-4)GlcNAc(b1-4)GlcNAc
Method in brief: as §1

[30] = target: Gal(b1-3)[Fuc(a1-4)]GlcNAc(b1-2)Man(a1-3)[Gal(b1-3)[Fuc(a1-4)]GlcNAc(b1-2)Man(a1-6)]Man(b1-4)GlcNAc(b1-4)[Fuc(a1-6)]GlcNAc
Method in brief: as §1

[31] = target: Gal(b1-3)[Fuc(a1-4)]GlcNAc(b1-3)Gal(b1-3)[Fuc(a1-4)]GlcNAc
Method in brief: as §1

B1: 3FTT (Staphylococcus aureus), Q5HCZ5 (protein)
chain: MTEKEKMLAEKWYDANFDQYLINERARAKDICFELNHTRPSATNKRKELIDQLFQTTTDNVSISIPFDTDYGWNVKLGKNVYVNTNCYFMDGGQITIGDNVFIGPNCGFYTATHPLNFHHRNEGFEKAGPIHIGSNTWFGGHVAVLPGVTIGEGSVIGAGSVVTKDIPPHSLAVGNPCKVVRKIDNDLPSETLNDETIK
glycan array binding signal (z-score) (Gal(a1-3)Gal): -0.201
glycan array binding signal (z-score) (Gal(a1-3)Gal(b1-3)GlcNAc): -0.034
glycan array binding signal (z-score) [1]: -0.061
glycan array binding signal (z-score) [2]: -0.02
glycan array binding signal (z-score) [3]: 0.2
glycan array binding signal (z-score) (Gal(a1-3)Gal(b1-4)Glc): -0.167
glycan array binding signal (z-score) (Gal(a1-3)Gal(b1-4)GlcNAc): -0.14
glycan array binding signal (z-score) [4]: -0.01
glycan array binding signal (z-score) [5]: 0.149
glycan array binding signal (z-score) [6]: -0.072
glycan array binding signal (z-score) (Gal(a1-3)GalNAc): -0.084
glycan array binding signal (z-score) [7]: 0.189
glycan array binding signal (z-score) [8]: -0.237
glycan array binding signal (z-score) (Gal(a1-4)Gal(b1-4)Glc): -0.171
glycan array binding signal (z-score) (Gal(a1-4)Gal(b1-4)GlcNAc): -0.263
glycan array binding signal (z-score) [9]: 0.058
glycan array binding signal (z-score) [10]: 0.067
glycan array binding signal (z-score) (Gal(a1-4)GlcNAc): 0.402
glycan array binding signal (z-score) (Gal(a1-6)Glc): -0.157
glycan array binding signal (z-score) (Gal(b1-2)Gal): -0.174
glycan array binding signal (z-score) (Gal(b1-3)Gal): 0.066
glycan array binding signal (z-score) (Gal(b1-3)Gal(b1-4)GlcNAc): 0.256
glycan array binding signal (z-score) [11]: -0.226
glycan array binding signal (z-score) (Gal(b1-3)GalNAc): -0.105
glycan array binding signal (z-score) [12]: -0.232
glycan array binding signal (z-score) [13]: -0.118
glycan array binding signal (z-score) [14]: -0.376
glycan array binding signal (z-score) [15]: -0.104
glycan array binding signal (z-score) [16]: -0.185
glycan array binding signal (z-score) (Gal(b1-3)GlcNAc): -0.004
glycan array binding signal (z-score) [17]: -0.16
glycan array binding signal (z-score) [18]: -0.031
glycan array binding signal (z-score) [19]: -0.172
glycan array binding signal (z-score) [20]: -0.229
glycan array binding signal (z-score) [21]: 0.098
glycan array binding signal (z-score) [22]: -0.018
glycan array binding signal (z-score) [23]: -0.002
glycan array binding signal (z-score) [24]: -0.054
glycan array binding signal (z-score) [25]: -0.201
glycan array binding signal (z-score) [26]: -0.014
glycan array binding signal (z-score) [27]: -0.087
glycan array binding signal (z-score) [28]: -0.131
glycan array binding signal (z-score) [29]: 19.9
glycan array binding signal (z-score) [30]: -0.148
glycan array binding signal (z-score) [31]: 0.019
